“And” between values parts separate entries of the source, which are not always exact repeats. Identical values can stand only once.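 Cells were grown in 96-well plates and exposed to each compound for 48 hours at five concentrations; endpoints were interpolated linearly between bracketing concentrations, or set to the highest concentration if not reached. GI50: concentration for 50% inhibition of growth. Definition used: TGI = concentration required for complete inhibition of growth.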 Numbered stars: 1 amine (or outer) side, 2 acyl side, 3 side chain; on linkers, the order of the positions; unused ones are H or OH. Square brackets hold non-standard residues; d marks the D form. Peptide text beside a SMILES is read from it. * marks the point of attachment. X27 = CC(=O)N(C)SCC(N[*:1])C(=O)[*:2]; Cbz = O=C(OCc1ccccc1)*; Bn = c1ccc(C*)cc1; For = O=C*
What follows are compounds tested on NCI-H322M lung (assay: NCI tumour cell line growth inhibition, 48 h).

SMILES | TGI | GI50
CCC1C2Cc3ccc(O)cc3C1(CC)CCN2C (stereo not given) | > 100 µM | –
C/C(=N\NS(=O)(=O)c1ccc(C)cc1)C(CN1CCCCC1)C(c1ccccc1)c1c(O)c2ccccc2oc1=O (stereo not given) | > 100 µM | –
C=CCNC(=O)NC(=O)CSC1=NNC2(C(=O)N1)c1ccccc1-c1ccccc12 | > 10 µM | –
COC1(OC)c2no[n+]([O-])c2CCC1O (stereo not given) | > 100 µM | –
COc1ccc(C(=O)OC2C(OC3C(O)COC(O[C@H]4C[C@H]5[C@@H]6CC=C7C[C@@H](O)CC[C@]7(C)[C@H]6CC[C@]5(C)[C@H]4[C@H](C)C(=O)CCC(C)C)C3OC(N)=O)OCC(O)C2O)cc1 (stereo not given in full) | 6.3 µM | 1.71 µM
Cc1cc(O)c(C(C)C)cc1S(=O)(=O)O (tested in a mixture with another compound) | > 100 µM and 14.8 µM | 1.23 µM
O=c1[nH]c2cc(Cl)ccc2nc1/C(=N\O)C(O)c1cccc([N+](=O)[O-])c1 (stereo not given) | > 100 µM | –
COC(=O)C1(CCC(C)=O)CCCCCC1=O (stereo not given) | > 100 µM | –
Cc1nc2ccccc2n1COC(Cn1ccnc1)c1ccc(Cl)cc1Cl (stereo not given) | > 100 µM | –
Cc1nn2c(/C=C3\C(=O)Nc4ccc(Cl)cc43)c(C)nc2s1 | > 100 µM | > 100 µM
COc1cc(NC(C)CCCNC2CN3CCC2CC3)c2ncccc2c1 (stereo not given) | 25.5 µM | 12.4 µM
COC(=O)N/N=C(\Cc1ccccc1)CN(C)C | > 100 µM | –
O=C(c1cccs1)N(C(=S)N1CCN(c2ccccn2)CC1)c1ccccc1 | 75.8 µM | –
O=C(O)c1cc([N+](=O)[O-])cc2c(=O)c3cnccc3[nH]c12 | > 100 µM | –
CC[C@]1(Cc2ccc(OC)c(OC)c2)C=[N+]([O-])O[C@H](OC2CCCC2(c2ccccc2)c2ccccc2)[C@@H]1OC(=O)c1ccccc1 (stereo not given in full) | > 58.2 µM | –
COC(=O)C1(C)CCC(c2ccc(C)cc2)=C(CC(=O)O)C1 (stereo not given) | > 100 µM | –
CSc1nc(C#N)c(/N=C\N(C)C)n1C | > 100 µM | –
O=C1/C(=C/c2cccc(Br)c2)CCc2ccccc21 | 32.4 µM | –
C=C(C)C(=O)O[C@H]1CC(=C)[C@@H]2C[C@H](O)[C@](O)(CCl)[C@@H]2[C@H]2OC(=O)C(=C)[C@@H]21 | 24.4 µM | 11.6 µM
CCOC(=O)c1cccn1S(=O)(=O)c1cc(Cl)ccc1NC(=O)CC | > 100 µM | –
CCOC(CN(C)C(=O)Nc1cccc2ccccc12)OCC | > 10 µM | –
FC(F)(F)c1ccc(Nc2nc(-c3c(C(F)(F)F)nc4ccccn34)cs2)cc1 | 11.8 µM | 0.06 µM
C=CCOc1cccc(C2(O)c3ccccc3C3=NCCCN32)c1 (stereo not given) | > 44.1 µM | –

SMILES | TGI | GI50
COc1ccc(C(=O)c2cc(OC)c(OC)c(OC)c2)cc1OC(=O)CCl | > 100 µM | 0.0809 µM
Cc1ccc2nc(NC(=O)C(=O)C(C#N)c3nc4ccccc4s3)sc2c1 (stereo not given) | > 100 µM | –
O=c1oc2ccc3ccccc3c2cc1-c1cn2ccccc2n1 | > 100 µM | –
COc1ccc(Nc2nnc(-c3nsc4ccccc34)s2)cc1 | > 100 µM | –
CC(C)N(Cc1ccccc1)c1c(S)ssc1=S | > 100 µM | 3.39 µM
CCOP(=O)(OCC)/C(C#N)=C/c1ncc[nH]1 | > 100 µM | –
CC(C)OC(=O)c1ccc(NCc2cc(O)ccc2O)cc1Cl | > 100 µM | –
C[N+](C)(C)CC(=O)N/N=C/c1oc(-c2c(O)ccc3ccccc23)c(-c2c(O)ccc3ccccc23)c1[N+](=O)[O-] | 61.4 µM | –
Nc1ncnc2c1ncn2C=C=CCO | > 100 µM | –
C=C1C(=O)O[C@H]2[C@H]1CC/C(COC(=O)NCc1cn(C)c3ccccc13)=C\CC[C@@]1(C)O[C@@H]21 | 13.7 µM | 3.05 µM
CNS(=O)(=O)NN(C)S(=O)(=O)c1ccccc1 | > 100 µM | –
COC(=O)/C(C)=C(/CCC1(C)OCCO1)O[Si](C)(C)C | > 100 µM | –
COc1ccc(C2=CC(c3ccc4c(c3)OCO4)c3c(c4ccccc4oc3=O)O2)cc1OC (stereo not given) | > 100 µM | –
C(#Cc1ccccc1C#Cc1cccs1)c1cccs1 | > 100 µM | 94.3 µM
CC(C)[C@H](N)C(=O)N1CCC[C@H]1B(O)O | > 100 µM | > 100 µM
Cn1cc(C(=O)NCCC(=N)N)cc1NC(=O)C1=[N+](C)C=C(NC(=O)c2cccc(C(=O)NC3=CC(C(=O)Nc4cc(C(=O)NCCC(=N)N)cn4C)=[N+](C)C3)c2)C1 | > 100 µM | –
Cc1csc2[n+]1C(=O)/C(=C\c1ccc([N+](=O)[O-])cc1)S2 | > 100 µM | –
COc1cc(C[C@H]2c3cc(OC)c(OC)cc3CCN2C)c(Oc2cc3c(cc2OC)-c2c(OC)c(OC)cc4c2[C@H](C3)N(C)CC4)cc1OC | 20.5 µM and 28.3 µM | 14.7 µM
CC1C2(C)OC(=N)C(C#N)(C(c3ccccc3)O2)C1(C#N)C#N (stereo not given) | > 100 µM | –
O=C(ON=C1c2ccccc2C(Br)C(Br)c2ccccc21)c1cc([N+](=O)[O-])cc([N+](=O)[O-])c1 (stereo not given) | 52.2 µM | –
O=c1[nH]c2cc([N+](=O)[O-])ccc2nc1/C(=N/Nc1ccccc1)C(O)c1ccccc1Cl (stereo not given) | > 100 µM | –
CC(C)=CCC/C(C)=C/CC/C(C)=C/CC/C(C)=C/C=C/C=C(\C)CC/C=C(\C)CC/C=C(\C)CCC=C(C)C | > 100 µM | –
CC(=O)C(=C(c1ccccc1)c1ccccc1)c1ccccc1 | > 100 µM | –

SMILES | TGI | GI50
C[C@H]1[C@H](C)CC[C@]2(CO)CC[C@]3(C)C(=CC[C@@H]4[C@@]5(C)CCCNC(C)(C)[C@@H]5CC[C@]43C)[C@H]12 | 3.19 µM | 1.73 µM
O=C1/C(=C\c2ccc(O)cc2)CCC/C1=C/c1ccc(Cl)c(Cl)c1 | 17.7 µM | –
CC(=O)N(C)SCC(NC(=O)C(Cc1ccccc1)NC(=O)OCc1ccccc1)C(=O)NC(Cc1ccccc1)C(=O)NC(Cc1cn(C=O)c2ccccc12)C(=O)NC(CCCCNC(=O)OCc1ccccc1)C(=O)NC(C(=O)NC(CSN(C)C(C)=O)C(=O)NC(C(N)=O)C(C)OCc1ccccc1)C(C)OCc1ccccc1 (stereo not given) (Cbz-F[X27]FW(For)K(Cbz)T(Bn)[X27]T(Bn)-NH2; configuration not given here) | > 100 µM | –
O=C1c2ccccc2C(O)(O)C1(O)C1(O)C(=O)c2ccccc2C1(O)O (stereo not given) | > 100 µM | –
CC/C=C1/C(=O)C=C[C@@H]1C/C=C\CCCC(=O)OC | 21.3 µM | 7.3 µM
COCCOC(=O)c1c(C)n([O-])c2cc(Cl)c(Cl)cc2[n+]1=O | 69.7 µM | –
COc1cc([N+](=O)[O-])c(OC)cc1-c1nc2sc(Cl)cn2c1/C(N)=N/C(=N)N | 10.8 µM | 3 µM
Oc1c(C(Nc2cccc3cccnc23)c2ccccc2)ccc2cccnc12 (stereo not given) | > 100 µM | –
CCOc1ccc(NC(=O)C(=O)CC(=O)c2sc(NNC(C)=O)nc2C)cc1 | > 100 µM | –
CCOC(=O)N1CCN(C=S)CC1 | > 100 µM | –
COc1cc(OC(=O)c2ccccc2)cc2c1C(=O)C=CC2=O | 44.8 µM | –
CCN(CC)CCCC(C)Nc1ccnc2cc(Oc3ccccc3)ccc12 (stereo not given) | 17.1 µM and 79.4 µM | 5.63 µM and 22.6 µM
CCCCOC(=O)C1C2CCC(O2)C1C(=O)OCCCC (stereo not given) | > 100 µM | –
O=C(Nc1ccc(Cl)cc1)NS(=O)(=O)c1coc2cc(F)ccc2c1=O | > 100 µM | –
COc1ccc(-c2c(C#N)c(N)n(C3OCC(OC(C)=O)C(OC(C)=O)C3OC(C)=O)c(=S)c2C#N)cc1 (stereo not given) | > 100 µM | –
COc1cc(CSc2nc3ccc(C)cc3c(=O)n2-c2ccccc2)cc(OC)c1OC | > 100 µM | 19.2 µM
O=[N+]([O-])O.[Cu+2].[NH-]CC[NH-].[NH-]CC[NH-] | > 10 µM | > 10 µM
COC(=O)c1ccc(C)cc1CC1Cc2cc(C)ccc2C1=O (stereo not given) | > 100 µM | –
Cc1c(C(N)=O)sc2c1C(=O)N(Cc1ccccc1)C1=NN=C(c3ccc(Cl)cc3)CN12 | 17.5 µM | 2.96 µM
CC(=O)OCC1=C(CCC#N)N2C(=O)C(NC(=O)Cc3cccs3)C2S(=O)C1 (stereo not given) | > 100 µM | –
CN(CCCCCl)P(=O)(OCc1ccc([N+](=O)[O-])o1)OC[C@H]1O[C@@H](n2cc(F)c(=O)[nH]c2=O)C[C@@H]1O (stereo not given in full) | 59.4 µM | –
CCOc1cc(NC(C)=O)ccc1C(=O)NN1C(=O)C(Cl)C1c1ccccc1 (stereo not given) | 27.1 µM | –
COc1ccc2[nH]cc(CCNC(=O)[C@H](Cc3ccccc3)NC(=O)[C@@H](NCC(F)(F)F)C(C)C)c2c1 | 61.6 µM | –

SMILES | TGI | GI50
CC(C)(C)n1cc(-c2ccnc(NCCCNS(=O)(=O)c3ccc(C(F)(F)F)cc3)c2)c(-c2cccc(O)c2)n1 | 4.06 µM | 2.07 µM
C/C(CC(=O)Nc1ccc([N+](=O)[O-])cc1)=N\NC(N)=O | > 100 µM | –
O=[N+]([O-])c1cc(C(F)(F)F)cc([N+](=O)[O-])c1CCl | 10 µM | –
COC(=O)c1nc(-c2ccccc2)oc1S(=O)(=O)Cc1ccccc1 | 29.4 µM | 15.9 µM
CCOC(=O)P(=O)(O)c1ccc(N(C)Cc2ccccc2)cc1 | > 100 µM | –
O=C(O)C(SC(=S)c1ccc(C(=S)SC(C(=O)O)c2ccccc2)cc1)c1ccccc1 (stereo not given) | > 100 µM | –
OC(c1ccccc1)(c1ccccc1)c1ccncc1 | > 100 µM | –
N#Cc1c(N)nc(-c2ccc(Cl)cc2)c2c1-c1ccccc1S(=O)(=O)CC2 | > 100 µM | –
COc1ccc(-c2nc(-c3nc4ccc(OC)cc4[nH]3)c3ccccn23)cc1 | 10.6 µM | 3.22 µM
CCOC(=O)C1=C(C)OC2(O)C=CC(O)=C3C(=O)N(c4ccccc4)C(=O)C312 (stereo not given) | > 100 µM | –
CCOC(=O)NC(=O)c1cn(CCOC(=O)CCCCCCCCC(=O)OCCn2cc(C(=O)NC(=O)OCC)c(=O)[nH]c2=O)c(=O)[nH]c1=O | > 100 µM | –
Clc1ccc(NCc2nnc(CCCCCCCCc3nnc(CNc4ccc(Cl)cc4)o3)o2)cc1 | > 100 µM | –
C#Cc1c(F)ccc2cc(O)cc(-c3ncc4c(N5CC6CCC(C5)N6)nc(OC[C@@]56CCCN5C[C@H](F)C6)nc4c3F)c12 | 40.9 µM | 11.9 µM
CC(=O)OC1COC(n2c(O)c(N=NC(N)=S)c3cc(Br)ccc32)C(OC(C)=O)C1OC(C)=O (stereo not given) | > 100 µM | –
CCOc1ccccc1N1C(=O)C(=O)C(c2nc3ccccc3o2)C(=O)C1=O | > 100 µM | –
CCCCNc1nc(C#N)c(N)s1 | > 100 µM | –
Clc1ccc(C2SCc3nc4ccccc4n32)c(Cl)c1 (stereo not given) | 25.9 µM | –
CN(CCCn1c2c(c3ccccc3c1=O)C(=O)c1ccccc1-2)CCCn1c2c(c3ccccc3c1=O)C(=O)c1ccccc1-2 | 15 µM | 0.661 µM
N#CC(NC12CC3CC(CC(C3)C1)C2)c1ccc2c(c1)OCO2 (stereo not given) | > 100 µM | –
CCOC(=O)/C(C#N)=C\c1ccc(N(CCC(=O)O)CCC(=O)O)c(I)c1 | > 10 µM | –
CCCCCCCCCCCCCCCCCCNc1ccn(C2OC(COP(=O)(O)OCC3OC(n4cc(F)c(=O)[nH]c4=O)CC3O)C(O)C2O)c(=O)n1 (stereo not given) | > 100 µM | –
COc1cc2c(oc(=O)c3c4oc([Si](C)(C)C)cc4cc(OC)c23)c2cccc(OCc3ccccc3)c12 | > 84.2 µM | –

— PubChem BioAssay (NCI)
